Measured values published in ChEMBL document CHEMBL4888484, “Replenishing the malaria drug discovery pipeline: Screening and hit evaluation of the MMV Hit Generation Library 1 (HGL1) against asexual blood stage Plasmodium falciparum ,using a nano luciferase reporter read-out” (2022).
Out of some 150,000 compounds screened, about 540 (0.36%) showed an effect of 50% or more. Some of the results follow.

Each compound was assayed on Plasmodium falciparum (assay: Primary screen in NF54 nanoGlo assay, in single point, at 2uM, 72h; a lower Z score goes with more inhibition). Details: timepoint 72 hour.
Format: functional, Erythrocyte
`CC(C)Cc1cc(CN2C[C@@H](C(=O)O)CC2=O)no1` was tested, and the “% Inhibition” value was -2% and the Z score was 0.33.
In the case of `Cn1c(CN2CCOCC2)c(Br)c(=O)n(C)c1=O`, the “% Inhibition” value is reported as -1% and the Z score is reported as 0.16.
With `CNC(=O)CCCN(C)S(=O)(=O)C1CCC(C)(C)CC1` the “% Inhibition” value was -20% and the Z score was 3.71.
In the case of `O=S(=O)(Cc1ccccc1F)N1CCc2nnc(C3CC3)n2CC1`, the “% Inhibition” value is reported as -2% and the Z score is reported as 0.36.
With `COc1ccc(C(=O)N2CCCN(c3nc4ccccc4c4nnc(-c5ccc(C)cc5)n34)CC2)cc1` the “% Inhibition” value was -11% and the Z score was 2.16.
In the case of `Cc1cc(CN(C)C(=O)C2=NN(c3ccccc3)C(=O)CC2)no1`, the “% Inhibition” value is reported as -14% and the Z score is reported as 2.26.
For `CC(C)c1noc(N2CC3CC=CCC3C2)n1` (stereo not drawn), the “% Inhibition” value was -18% and the Z score was 1.56.
`CN(Cc1cnn(C)c1)C(=O)c1ccc2nc(-c3ccc(F)cc3)cn2c1` was tested, and the “% Inhibition” value was -9% and the Z score was 1.28.
With `CCNC(=O)CN(CC)C(=O)NCCCN(C)c1ccccc1` the “% Inhibition” value was 4% and the Z score was -0.82.
For `Cc1[nH]c(=O)c(C#N)c(C)c1CCC(=O)N1CCCC2COCCC21` (stereo not drawn), the “% Inhibition” value was -6% and the Z score was 0.98.
For `CCCNC(=O)N1CCC2(CC1)N[C@@H](Cc1ccccc1)C(=O)N2Cc1ccccc1`, the “% Inhibition” value was -6% and the Z score was 1.
In the case of `Cc1ccccc1NC(=O)N1CCC[C@H]1c1nc2cc(-c3ccc(F)cc3)ccc2o1`, the “% Inhibition” value is reported as -11% and the Z score is reported as 1.32.
For `CN1C(=O)[C@@H]2CC[C@H]1CN(Cc1cc3c(cc1Cl)OCO3)C2`, the “% Inhibition” value was 5% and the Z score was -0.6.
For `C[C@H]1c2cccn2CCN1CC(=O)N1CCN(S(=O)(=O)c2ccc3ccccc3c2)CC1`, the “% Inhibition” value was -43% and the Z score was 5.05.
With `Cc1csc(CN(C[C@H]2CCCO2)C(=O)c2cc(O)cc(O)n2)n1` the “% Inhibition” value was -8% and the Z score was 1.59.
With `COc1cc(OC)cc(-c2cc(-c3ccc(C)o3)nc(N)c2C#N)c1` the “% Inhibition” value was -2% and the Z score was 0.45.
`COCCn1cnc2cc(NC(=O)C3CCCCC3)cc(C(=O)N3CCN(C(C)C)CC3)c21` was tested, and the “% Inhibition” value was -13% and the Z score was 1.87.
With `COc1ccc(NC(=O)CCC(=O)NCc2ccco2)cc1` the “% Inhibition” value was 34% and the Z score was -4.43.
`CC[C@H](NCC(F)(F)F)c1nc(C)cs1` was tested, and the “% Inhibition” value was -10% and the Z score was 1.49.
`CCN(CC)c1onc(-c2ccccc2)c1CN(CCN(C)C)C(=O)c1ccc(Cl)cc1` was tested, and the “% Inhibition” value was 6% and the Z score was -0.8.
For `Cc1nn(C)c(C)c1CC(=O)N1CCc2cccc(F)c21`, the “% Inhibition” value was 2% and the Z score was -0.2.
`NCCOc1cccc(Br)c1` was tested, and the “% Inhibition” value was -30% and the Z score was 2.72.
For `Cc1nn(C)c(Cl)c1CN(C)C[C@H](C)N1CCOCC1`, the “% Inhibition” value was -1% and the Z score was 0.12.
For `O=C(Cn1cnnn1)N[C@@H]1COCC[C@@H]1Oc1cccc(F)c1`, the “% Inhibition” value was -8% and the Z score was 1.23.
With `Cc1nnc(NC(=O)Nc2ccccc2)nc1C` the “% Inhibition” value was -4% and the Z score was 0.56.
With `CC(C)C[C@H](NC(=O)NC1CCCC1)C(=O)O` the “% Inhibition” value was 0% and the Z score was 0.
In the case of `O=C(CC1CCCCC1)N1CC2CN(S(=O)(=O)c3cccc(F)c3)CC(C1)O2`, the “% Inhibition” value is reported as -3% and the Z score is reported as 0.28.
`COc1cc(NC(=O)N2CCC(c3nc(=O)[nH][nH]3)CC2)ccc1F` was tested, and the “% Inhibition” value was 4% and the Z score was -0.75.
For `O[C@@H]1COCc2nc3ccccc3n2C1`, the “% Inhibition” value was -3% and the Z score was 0.43.
For `Cn1ncc2ccc(N3C(=O)c4ccccc4C3=O)cc21`, the “% Inhibition” value was -2% and the Z score was 0.23.
For `O=C(C[C@@H]1N=C(O)N(Cc2ccccc2)C1=O)Nc1n[nH]c(CCc2ccccc2)n1`, the “% Inhibition” value was 17% and the Z score was -2.07.
In the case of `O=C(CCc1ccc(S(=O)(=O)N2CCCC2)cc1)NC1CCCC1`, the “% Inhibition” value is reported as -1% and the Z score is reported as 0.08.
`O=C(CNC(=O)Cc1ccccc1)NCCC1=CCCCCC1` was tested, and the “% Inhibition” value was -7% and the Z score was 1.17.
In the case of `CN(C)Cc1cc(CN(C)C)c(O)c(CCc2ccccc2)n1`, the “% Inhibition” value is reported as 7% and the Z score is reported as -1.36.
For `CN(C)CCN(Cc1ccsc1)C(=O)[C@@H]1CCC[C@H](O)C1`, the “% Inhibition” value was -14% and the Z score was 2.65.
In the case of `N#C[C@@H]1COCCN1Cc1ccc2ccccc2n1`, the “% Inhibition” value is reported as 0% and the Z score is reported as 0.01.
In the case of `CC(C)=CCCNC(=O)N1CCO[C@H](c2nc(C)cs2)C1`, the “% Inhibition” value is reported as -11% and the Z score is reported as 1.21.
`CO[C@H]1[C@H](NC(=O)c2ccsc2)c2ccccc2C12CCN(Cc1cccc(F)c1F)CC2` was tested, and the “% Inhibition” value was -6% and the Z score was 0.79.
For `CCCc1noc(CN(CCC#N)C2CCOCC2)n1`, the “% Inhibition” value was 1% and the Z score was -0.13.
`Cc1cc(CNS(=O)(=O)c2c(C)noc2C)no1` was tested, and the “% Inhibition” value was -7% and the Z score was 1.29.
For `Cc1cccc(-c2ccc3nc(-c4ccc(F)cc4)c(CN4CCN(C(=O)c5cccs5)CC4)n3c2)c1`, the “% Inhibition” value was -11% and the Z score was 2.12.
With `CC(C)C(=O)N1C[C@@H]2CN(C(=O)COc3ccc(F)cc3)C[C@]2(CO)C1` the “% Inhibition” value was -17% and the Z score was 2.22.
`CC(=O)NC(C)C(=O)NC(Cc1ccc(F)cc1)C(C)C` (stereo not drawn) was tested, and the “% Inhibition” value was 7% and the Z score was -1.28.
With `COc1ccc(-c2[nH]nc3nc(-c4ccc(C)cc4)cc(C(=O)NCc4ccc(F)cc4)c23)cc1` the “% Inhibition” value was -3% and the Z score was 0.26.
For `CCN1CCCC[C@@H]1CNc1nc(OC)cc(OC)n1`, the “% Inhibition” value was 4% and the Z score was -0.7.
In the case of `Cc1ccc(C2=NC3(CCN(Cc4ccccc4)CC3)N[C@H](c3cc(Cl)ccc3O)C2)cc1C`, the “% Inhibition” value is reported as 3% and the Z score is reported as -0.65.
`CC(C)(C)c1nc(CN2CCNC(=O)C2)cs1` was tested, and the “% Inhibition” value was -3% and the Z score was 0.52.
For `CN(C(=O)Cn1ccc(=O)[nH]c1=O)[C@H]1CCCN(Cc2ccccc2)C1`, the “% Inhibition” value was 5% and the Z score was -0.73.
With `CC(C)S(=O)(=O)CCNC(=O)Nc1ccccc1C1CC1` the “% Inhibition” value was 4% and the Z score was -0.58.
For `Cc1ccc(C)c([C@H](C)NC(=O)CN2CCN(c3cnn(C)c(=O)c3)CC2)c1`, the “% Inhibition” value was -9% and the Z score was 0.84.
With `Cc1ccc(-c2cc(C(=O)NC3CCCC(C)C3C)c3ccccc3n2)cc1C` (stereo not drawn) the “% Inhibition” value was -2% and the Z score was 0.29.
`N#CC1C(=O)Nn2c(N)nc(-c3ccccc3)c2C1c1ccccc1` (stereo not drawn) was tested, and the “% Inhibition” value was 28% and the Z score was -3.22.
For `CC(C)(CNC(=O)N1CCC(C(F)(F)F)C(CN)C1)C1=CCCCC1` (stereo not drawn), the “% Inhibition” value was 7% and the Z score was -0.75.
In the case of `CCCn1nccc1C(=O)N[C@H]1CC2(CCCCC2)Oc2ccccc21`, the “% Inhibition” value is reported as -8% and the Z score is reported as 1.25.
